# The other results are listed elsewhere or left out. The full chains were built here from the parent and the listed change. Values near 0.05 are background.
# B1: TEV protease; numbered along this chain (parent)
# chain: MGESLFKGPRDYNPISSSICHLTNESDGHTTSLYGIGFGPFIITNKHLFRRNNGTLVVQSLHGVFKVKDTTTLQQHLVDGRDMIIIRMPKDFPPFPQKLKFREPQREERICLVTTNFQTKSMSSMVSDTSCTFPSGDGIFWKHWIQTKDGQCGSPLVSTRDGFIVGIHSASNFTNTNNYFTSVPKNFMELLTNQEAQQWVSGWRLNADSVLWGGHKVFMVKPEEPFQPVKEATQL
# Variants of: B1
# Experiment: raw area under fraction-flipped curve 0-4 h after induction (AUC4h, not background-subtracted), DNA-recorder readout of cleavage of the substrate (dimensionless); higher = more cleavage of the substrate by the protease variant
# Settings: temperature: 34 °C; time window: 0-4 h after rhamnose induction
# Procedure: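 In vivo DNA recorder in E. coli TOP10(DE3) ΔrhaA at 34 °C. Each TEVp single-site mutant (parent TEVp 0) is paired with a single-site variant of the 7-mer TEVs (canonical ENLYFQ|S). The substrate sits between flexible linkers in a Bxb1-sfGFP-TEVs-SsrA fusion, so cleavage stabilises Bxb1 and speeds flipping of a recombination array, read by NGS. The value is the raw area under the fraction-flipped curve over 0-4 h after rhamnose induction (AUC4h), with ≥20 reads per time point. It is not background-subtracted; inactive controls average about 0.047.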
# 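Also: Bxb1 expression induced with 0.2% (w/v) L-rhamnose at OD600 near 0.5, cultures sampled hourly, flipped fraction per protease–substrate barcode pair counted by paired-end Illumina sequencing.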
Variant,area with substrate CNLYFQS,area with substrate DNLYFQS,area with substrate FNLYFQS,area with substrate HNLYFQS,area with substrate INLYFQS,area with substrate KNLYFQS,area with substrate QNLYFQS,area with substrate SNLYFQS,area with substrate TNLYFQS,area with substrate LNLYFQS,area with substrate PNLYFQS,area with substrate WNLYFQS,area with substrate GNLYFQS,area with substrate MNLYFQS,area with substrate NNLYFQS,area with substrate RNLYFQS,area with substrate VNLYFQS,area with substrate YNLYFQS
MGCSLFKGPRDYNPISSSICHLTNESDGHTTSLYGIGFGPFIITNKHLFRRNNGTLVVQSLHGVFKVKDTTTLQQHLVDGRDMIIIRMPKDFPPFPQKLKFREPQREERICLVTTNFQTKSMSSMVSDTSCTFPSGDGIFWKHWIQTKDGQCGSPLVSTRDGFIVGIHSASNFTNTNNYFTSVPKNFMELLTNQEAQQWVSGWRLNADSVLWGGHKVFMVKPEEPFQPVKEATQL [E3C],0.0728,0.09,0.0444,0.0774,0.0689,0.0692,0.0847,0.0665,0.0657,,,,,,,,,
MGFSLFKGPRDYNPISSSICHLTNESDGHTTSLYGIGFGPFIITNKHLFRRNNGTLVVQSLHGVFKVKDTTTLQQHLVDGRDMIIIRMPKDFPPFPQKLKFREPQREERICLVTTNFQTKSMSSMVSDTSCTFPSGDGIFWKHWIQTKDGQCGSPLVSTRDGFIVGIHSASNFTNTNNYFTSVPKNFMELLTNQEAQQWVSGWRLNADSVLWGGHKVFMVKPEEPFQPVKEATQL [E3F],0.0911,0.1,,0.053,0.0651,,,0.0739,0.0566,0.0711,0.0752,0.0733,,,,,,
MGRSLFKGPRDYNPISSSICHLTNESDGHTTSLYGIGFGPFIITNKHLFRRNNGTLVVQSLHGVFKVKDTTTLQQHLVDGRDMIIIRMPKDFPPFPQKLKFREPQREERICLVTTNFQTKSMSSMVSDTSCTFPSGDGIFWKHWIQTKDGQCGSPLVSTRDGFIVGIHSASNFTNTNNYFTSVPKNFMELLTNQEAQQWVSGWRLNADSVLWGGHKVFMVKPEEPFQPVKEATQL [E3R],0.0697,0.0796,,0.0661,0.0636,0.0696,,0.0774,,,,,0.0661,0.0635,0.06,,,
MGEILFKGPRDYNPISSSICHLTNESDGHTTSLYGIGFGPFIITNKHLFRRNNGTLVVQSLHGVFKVKDTTTLQQHLVDGRDMIIIRMPKDFPPFPQKLKFREPQREERICLVTTNFQTKSMSSMVSDTSCTFPSGDGIFWKHWIQTKDGQCGSPLVSTRDGFIVGIHSASNFTNTNNYFTSVPKNFMELLTNQEAQQWVSGWRLNADSVLWGGHKVFMVKPEEPFQPVKEATQL [S4I],0.0682,0.0834,0.0409,0.0702,0.0866,,,0.0798,,0.0675,0.0976,0.058,0.0674,0.0597,,0.068,0.0772,0.0683
MGEYLFKGPRDYNPISSSICHLTNESDGHTTSLYGIGFGPFIITNKHLFRRNNGTLVVQSLHGVFKVKDTTTLQQHLVDGRDMIIIRMPKDFPPFPQKLKFREPQREERICLVTTNFQTKSMSSMVSDTSCTFPSGDGIFWKHWIQTKDGQCGSPLVSTRDGFIVGIHSASNFTNTNNYFTSVPKNFMELLTNQEAQQWVSGWRLNADSVLWGGHKVFMVKPEEPFQPVKEATQL [S4Y],0.0699,0.0967,,0.0693,,0.0706,,,0.0709,0.0687,0.0951,0.0708,0.0696,0.089,0.0709,,,0.0803
MGESPFKGPRDYNPISSSICHLTNESDGHTTSLYGIGFGPFIITNKHLFRRNNGTLVVQSLHGVFKVKDTTTLQQHLVDGRDMIIIRMPKDFPPFPQKLKFREPQREERICLVTTNFQTKSMSSMVSDTSCTFPSGDGIFWKHWIQTKDGQCGSPLVSTRDGFIVGIHSASNFTNTNNYFTSVPKNFMELLTNQEAQQWVSGWRLNADSVLWGGHKVFMVKPEEPFQPVKEATQL [L5P],0.0744,0.0604,0.0534,0.0603,,0.0593,,0.0561,,,,,,,0.0588,,,
MGESLFKGCRDYNPISSSICHLTNESDGHTTSLYGIGFGPFIITNKHLFRRNNGTLVVQSLHGVFKVKDTTTLQQHLVDGRDMIIIRMPKDFPPFPQKLKFREPQREERICLVTTNFQTKSMSSMVSDTSCTFPSGDGIFWKHWIQTKDGQCGSPLVSTRDGFIVGIHSASNFTNTNNYFTSVPKNFMELLTNQEAQQWVSGWRLNADSVLWGGHKVFMVKPEEPFQPVKEATQL [P9C],0.0684,0.0613,,0.0548,0.0749,,0.0647,0.0509,0.0738,,,0.0668,0.101,0.0608,0.0564,,,
MGESLFKGRRDYNPISSSICHLTNESDGHTTSLYGIGFGPFIITNKHLFRRNNGTLVVQSLHGVFKVKDTTTLQQHLVDGRDMIIIRMPKDFPPFPQKLKFREPQREERICLVTTNFQTKSMSSMVSDTSCTFPSGDGIFWKHWIQTKDGQCGSPLVSTRDGFIVGIHSASNFTNTNNYFTSVPKNFMELLTNQEAQQWVSGWRLNADSVLWGGHKVFMVKPEEPFQPVKEATQL [P9R],0.0797,0.0926,,0.0679,,0.0598,,0.081,0.069,0.0624,,,0.0766,0.0622,,,0.068,0.0947
MGESLFKGPDDYNPISSSICHLTNESDGHTTSLYGIGFGPFIITNKHLFRRNNGTLVVQSLHGVFKVKDTTTLQQHLVDGRDMIIIRMPKDFPPFPQKLKFREPQREERICLVTTNFQTKSMSSMVSDTSCTFPSGDGIFWKHWIQTKDGQCGSPLVSTRDGFIVGIHSASNFTNTNNYFTSVPKNFMELLTNQEAQQWVSGWRLNADSVLWGGHKVFMVKPEEPFQPVKEATQL [R10D],0.0674,0.0961,,,0.0639,0.0691,,0.0688,0.0636,0.0478,,0.0588,0.0692,0.0571,,0.0827,0.066,0.0614
MGESLFKGPWDYNPISSSICHLTNESDGHTTSLYGIGFGPFIITNKHLFRRNNGTLVVQSLHGVFKVKDTTTLQQHLVDGRDMIIIRMPKDFPPFPQKLKFREPQREERICLVTTNFQTKSMSSMVSDTSCTFPSGDGIFWKHWIQTKDGQCGSPLVSTRDGFIVGIHSASNFTNTNNYFTSVPKNFMELLTNQEAQQWVSGWRLNADSVLWGGHKVFMVKPEEPFQPVKEATQL [R10W],0.081,0.0734,0.0668,0.0613,,0.0282,0.0641,0.0592,0.0745,0.0576,0.0773,0.0575,0.0657,0.0676,,,,

# Source: the supplement of paper PMC12217912
